According to the supplement of paper PMC10185492:
This is one part of the list. Values come from read counts of a selection and are noisy.

The substances below were run on SARS-CoV-2 3CLpro (nsp5) (assay: substrate phage enrichment score (protease-eluted vs HEPES control, +1 offset) (ratio); higher = better cleaved substrate). Conditions: selection round: 3; protease elution time: 0.5 h.
Method: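 Random heptapeptide substrate phage display (M13 pIII fusion, heptapeptide between an N-terminal biotinylated AviTag GLNDIFEAQKIEWHE and pIII; phages immobilised on streptavidin) eluted by cleavage with 50 nM protease in 20 mM HEPES at 37 °C. Selected phages were NGS sequenced, and the enrichment score is (reads in protease sample + 1)/(reads in HEPES blank-selection control + 1).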

Row | Substance | substrate phage enrichment score
1 | CVRRIEP | > 23
2 | QTWPSRL | > 51
3 | QKGVKMQ | 22.5
4 | WYDSKWT | 1.75
5 | PESPLKN | > 41
6 | QQPEYMV | 1.22
7 | SNTEPRD | 5
8 | CKNSSQL | 11.5
9 | LHARPGQ | > 31
10 | EASTEYG | 0.667
11 | AGLSPNR | > 39
12 | QCDRPEK | > 21
13 | SWSQFYR | 10
14 | VLPHIII | 1.35
15 | IYTVTEQ | > 22
16 | EDTGNMV | 0.0909
17 | SKVRMGS | > 26
18 | SSRQSVR | > 25
19 | SKAGREE | 13
20 | ETSAAAH | 2.14
21 | CWAAHHH | 0.737
22 | EPNTPIT | 11.5
23 | SNALFRN | > 21

Row | Substance | substrate phage enrichment score
24 | HEATARD | > 28
25 | PNERNSR | > 26
26 | LTGSMLQ | > 64
27 | TCNVNLQ | > 51
28 | RATRARE | 0.714
29 | SKPSACR | > 22
30 | HSRKDCG | 1.3
31 | FPFRTNH | 2.15
32 | SQSARTY | > 22
33 | KQCVTRN | 1.5
34 | AVRCELQ | > 116
35 | RGHWTTQ | 1.76
36 | LYRERPD | > 28
37 | YWPTKKG | 0.333
38 | REKPAGS | 1.88
39 | SCTHRWP | > 35
40 | CLAAHHH | 1.1
41 | RRILRFR | > 39
42 | SQHQAGP | 3
43 | STEHGRN | > 21
44 | RDTANLQ | > 62
45 | PGLSALQ | > 87
46 | ARMPLVQ | 12

Row | Substance | substrate phage enrichment score
47 | CTMFRAL | 1.45
48 | VRPTQLQ | > 27
49 | SASPHPG | > 31
50 | GHAAAHH | 0.778
51 | RPTTVLQ | > 24
52 | PRLPSFK | > 48
53 | PGGSAAA | 0.478
54 | STPAHHH | 1.46
55 | SAAAKHH | 1.3
56 | QKSYTLK | > 24
57 | CVKPYVN | > 42
58 | RDRLHRQ | 2.2
59 | CVLYKKL | 0.06
60 | SCPGSRS | > 58
61 | AFWNEMR | > 35
62 | CAQRCVR | 8
63 | PKHTREH | 11.5
64 | QSILQGT | 82
65 | KTSATLN | > 21
66 | PRNNRLQ | 16.5
67 | HRGAILQ | > 43
68 | SAAAHHP | 1.57
69 | NAAAHLN | > 21

Row | Substance | substrate phage enrichment score
70 | FTTPKGP | 9
71 | TEAWNEI | 2.38
72 | ASASGSD | 5.07
73 | PTLQSNA | > 44
74 | QPAAHHH | 1.44
75 | TPVPKTC | > 22
76 | FPGERTH | 2.14
77 | LRRNAEC | 12
78 | WGSQPVS | 13.5
79 | PAQTLTT | > 23
80 | SRYKAGI | 10.5
81 | QVKPNGF | 8.4
82 | ALTCHPR | 2.2
83 | RGCQAHP | 0.55
84 | RAAAQQH | 1.6
85 | DPIKWTP | 10.7
86 | DEAAHHH | 0.381
87 | SGAAHHH | 0.774
88 | WPQTESC | > 45
89 | TRGHSSV | 0.139
90 | TTAAHHH | 1.21
91 | RRPHIII | 1.49
92 | NRAAHHH | 1.03

Row | Substance | substrate phage enrichment score
93 | QRSGRSG | 81
94 | EPKWPVY | 8.33
95 | SAAAHQN | 1.48
96 | QAAHHHH | 0.692
97 | SHRVILQ | > 99
98 | LLQSSKG | 4.43
99 | HYFQGGS | 1.8
100 | RYFQGGS | 0.803
101 | GHHVHAA | 2.14
102 | VHSTDVI | > 23
103 | SERAVVL | > 43
104 | TETKAVT | 2.75
105 | AHHARLQ | > 56
106 | SGRAINS | 2.43
107 | QNTGNLT | 12
108 | SLWLGQT | > 21
109 | GCVLQAA | > 242
110 | ASGSTSE | 3.8
111 | SNFQGGS | 0.857
112 | NVAAHHH | 0.83
113 | LQRTWPN | > 32
114 | TGAGARQ | > 23
115 | ESRDRPT | 2.22

Row | Substance | substrate phage enrichment score
116 | TRDGMSA | 2.38
117 | EQYFQGG | 1.35
118 | TTRYQAD | 2.57
119 | CTPCSNQ | > 65
120 | LRPATMQ | > 28
121 | HQAAHHH | 2.16
122 | TSQTGAR | 29
123 | VGGSAAA | 0.929
124 | KQVTTPW | 2
125 | TSECSAR | > 21
126 | RQASQYG | 2.25
127 | DQVSTKK | > 21
128 | SPDFRSK | 2
129 | TDKQESS | 6.75
130 | DKAAHHH | 1.05
131 | PSAAHHH | 1.09
132 | RERCQWA | 2.14
133 | GRLPCGR | 3.88
134 | QNVVGRH | 1.88
135 | CTIPQPP | > 25
136 | SAAAHHH | 0.99
137 | YAGSAAA | 5.75
138 | PCRPTNH | > 21

Row | Substance | substrate phage enrichment score
139 | QFSTTLQ | > 33
140 | SKTRVSQ | > 26
141 | PASTMGQ | > 141
142 | QKPNMLY | > 21
143 | QRHTTSV | 5.6
144 | CLVRIIR | 0.929
145 | IQSSTLI | 1.67
146 | FRPHIII | 1.55
147 | EHCKIQR | > 46
148 | SPSLSVQ | 4.88
149 | QMCVPTD | > 45
150 | PCFQGGS | 0.6
151 | HGAAHHH | 0.435
152 | RIFRVVV | 3.25
153 | ASRVPSA | > 21
154 | VALQSGS | > 49
155 | GNFPAQN | 1.64
156 | PYSMSAR | 2.38
157 | LNNHNAR | 2.25
158 | SYFQGGS | 2.36
159 | KEAAHHH | 0.979
160 | YLNHRCN | 0.917
161 | PYECTPG | 13.3

Row | Substance | substrate phage enrichment score
162 | TPILQAQ | 164
163 | STQPVRP | > 21
164 | PDHNLTH | 1.08
165 | NGLSQYR | 3.19
166 | TQCGATG | 9.33
167 | PCTEPLT | > 34
168 | LSGQHPC | 11
169 | ANFQGGS | 2.9
170 | TGAAHHH | 0.755
171 | SNFAAPD | > 25
172 | STSHGGR | 9
173 | RDGTSLQ | > 30
174 | YGLNYYR | 3.86
175 | LPCSRNG | 1.3
176 | QPVIERQ | > 51
177 | ALRTQLQ | 41.5
178 | HESYARF | 14
179 | PGEYVQP | 0.857
180 | SRINLRA | 3.5
181 | KASGTAA | 47
182 | EEETITR | 4.12
183 | TDFQGGS | 1
